# Source: patent US4438029A, “Synthetic peptides” (Research Corporation, priority 1979, dated 1984)
# At least one peptide structure holds a part that was inferred or is arguable (an end, a ring closure or a residue). Square brackets hold non-standard residues; d marks the D form. Ends that are not written are not given here. Peptide text beside a SMILES is read from it. Cav = NC(N)=NOCC[C@H](N)C(=O)O
# Tested on: guinea pig ileum strips
# Assay: Contraction of guinea pig ileum strips in Tyrode's solution
# Assay type: cell-based
# Conditions: Table I; per 10 ml of solution; full contraction; guinea pig ileum strips with Tyrode's solution
row,Compound,Activity (amount of peptide per 10 ml of solution to contract fully guinea pig ileum strips) [nmol]
1,"HLGLAR [No. 3, His-Leu-Gly-Leu-Ala-Arg]",10 to 20
2,"RQHARASHLGLAR [No. 7, Arg-Gln-His-Ala-Arg-Ala-Ser-His-Leu-Gly-Leu-Ala-Arg]",4 to 7
3,"ASHLGLARG [No. 8, Ala-Ser-His-Leu-Gly-Leu-Ala-Arg-Gly]",280 to 560
4,"CC(C)C[C@H](NC(=O)CN)C(=O)N[C@@H](C)C(=O)N[C@@H](CCCNC(=N)N)C(=O)O [No. 1, Gly-Leu-Ala-Arg] (H-GLAR-OH)",1200 to 1400
5,"RQHARASHLGLARG [No. 9, Arg-Gln-His-Ala-Arg-Ala-Ser-His-Leu-Gly-Leu-Ala-Arg-Gly]",240 to 360
6,"SHLGLAR [No. 4, Ser-His-Leu-Gly-Leu-Ala-Arg]",6 to 10
7,"LGLAR [No. 2, Leu-Gly-Leu-Ala-Arg]",150 to 300

# Same assay, conditions: Table II; per 10 ml of Tyrode's solution; full contraction; guinea pig ileum strip
row,Compound,Ileum Activity (amount of peptide per 10 ml of Tyrode's solution to fully contract a guinea pig ileum strip) [nmol]
1,"AAALGLAR [No. 10, Ala-Ala-Ala-Leu-Gly-Leu-Ala-Arg]",6 to 8
2,AALGLAR [Ala-Ala-Leu-Gly-Leu-Ala-Arg],10 to 14
3,ALGLAR [Ala-Leu-Gly-Leu-Ala-Arg],5 to 11
4,CC(=O)N[C@@H](C)C(=O)N[C@@H](CC(C)C)C(=O)NCC(=O)N[C@@H](CC(C)C)C(=O)N[C@@H](C)C(=O)N[C@@H](CCONC(=N)N)C(=O)O [CH3 CO--Ala-Leu-Gly-Leu-Ala-Can] (Ac-ALGLA[Cav]-OH),85 to 170
